# Test results from the supplement of paper PMC10037445.
# Over roughly 2,900 compounds, “NF-kB SEAP reporter activity, fold change vs agonist alone” has its median near 0.99; the highest 2% begin near 2.6. The list shows a part of the results.
# Experiments:
# RAW-Dual [1] = experiment: NF-kB SEAP reporter activity, fold change vs agonist alone; higher = enhanced NF-kB activity; settings: library stock concentration (final ~1000-fold dilution): 10 mM
# Summary of the method: (§1)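 RAW-Dual macrophages were seeded in DMEM at 50,000 cells/well in 384-well plates, given 50 nL of library stock by pin tool, and given a PRR agonist 1 h later. Plates were held at 37 °C, 5% CO2 for 20 hours, after which supernatant was read for IRF by QuantiLuc luminescence and for NF-κB by QuantiBlue absorbance at 620 nm. Reporter activity is expressed as fold change over wells that received agonist alone. A well was called cytotoxic when IncuCyte confluency fell below 70% of agonist controls in both mask sets.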
# RAW-Dual [2] = experiment: NF-kB SEAP reporter activity, fold change vs agonist alone; cytotoxicity flag (confluency mask): not cytotoxic; higher = enhanced NF-kB activity
# Summary of the method: as §1
# RAW-Dual [3] = experiment: NF-kB SEAP reporter activity, fold change vs agonist alone; cytotoxicity flag (confluency mask): cytotoxic (confluency <70% of control); higher = enhanced NF-kB activity
# Summary of the method: as §1
# [4] = cytotoxicity flag (confluency mask): not cytotoxic, agonist: Imiquimod (TLR7) […]
# [5] = cytotoxicity flag (confluency mask): not cytotoxic, agonist: MPLA (TLR4) […]
# [6] = agonist: ODN 1826 (TLR9) 0.5 ug/mL
# [7] = agonist: Pam2CSK4 (TLR2/6) 0.1 ug/mL
# [8] = agonist: Pam3CSK4 (TLR2/1) 0.1 ug/mL
# [9] = cytotoxicity flag (confluency mask): cytotoxic (confluency <70% of control), agonist: Imiquimod (TLR7) […]
# [10] = cytotoxicity flag (confluency mask): cytotoxic (confluency <70% of control), agonist: MPLA (TLR4) […]
structure (smiles),measurement,setting,value
Nc1n[nH]c2nnc(-c3c(-c4ccccc4)nn4ccccc34)cc12,NF-kB SEAP reporter activity,RAW-Dual [1]; [4],0.542
same,NF-kB SEAP reporter activity,RAW-Dual [1]; [5],0.861
Nc1n[nH]c2nnc(-c3c(-c4ccccc4)nn4ccccc34)cc12 (library stock concentration (final ~1000-fold dilution): 10 mM),NF-kB SEAP reporter activity,RAW-Dual [2]; agonist: LPS (TLR4) 0.1 ug/mL,1.37
same,NF-kB SEAP reporter activity,RAW-Dual [2]; [6],0.626
same,NF-kB SEAP reporter activity,RAW-Dual [2]; [7],0.577
same,NF-kB SEAP reporter activity,RAW-Dual [2]; [8],0.624
Cc1cc(C)c2c(c1)C(N(Cc1cc(C(F)(F)F)cc(C(F)(F)F)c1)c1nnn(C)n1)CCCN2CC1CCC(C(=O)O)CC1 (centres undefined) (library stock concentration (final ~1000-fold dilution): 10 mM),NF-kB SEAP reporter activity,RAW-Dual [2]; agonist: LPS (TLR4) 0.1 ug/mL,0.632
same,NF-kB SEAP reporter activity,RAW-Dual [2]; [6],0.635
same,NF-kB SEAP reporter activity,RAW-Dual [2]; [7],0.484
same,NF-kB SEAP reporter activity,RAW-Dual [2]; [8],0.444
Cc1cc(C)c2c(c1)C(N(Cc1cc(C(F)(F)F)cc(C(F)(F)F)c1)c1nnn(C)n1)CCCN2CC1CCC(C(=O)O)CC1 (centres undefined),NF-kB SEAP reporter activity,RAW-Dual [1]; [4],0.911
same,NF-kB SEAP reporter activity,RAW-Dual [1]; [5],1.14
CC1=C(C)C(=O)C(CCCCCCCCCC[P+](c2ccccc2)(c2ccccc2)c2ccccc2)=CC1=O,NF-kB SEAP reporter activity,RAW-Dual [1]; [4],0.141
same,NF-kB SEAP reporter activity,RAW-Dual [1]; [5],0.218
CC1=C(C)C(=O)C(CCCCCCCCCC[P+](c2ccccc2)(c2ccccc2)c2ccccc2)=CC1=O (library stock concentration (final ~1000-fold dilution): 10 mM),NF-kB SEAP reporter activity,RAW-Dual [2]; agonist: LPS (TLR4) 0.1 ug/mL,0.32
same,NF-kB SEAP reporter activity,RAW-Dual [2]; [6],0.254
same,NF-kB SEAP reporter activity,RAW-Dual [2]; [7],0.159
same,NF-kB SEAP reporter activity,RAW-Dual [2]; [8],0.223
CN1CCC(=C2c3ccccc3C=Cc3ccccc32)CC1 (library stock concentration (final ~1000-fold dilution): 10 mM),NF-kB SEAP reporter activity,RAW-Dual [2]; agonist: LPS (TLR4) 0.1 ug/mL,0.81
same,NF-kB SEAP reporter activity,RAW-Dual [2]; [6],0.511
same,NF-kB SEAP reporter activity,RAW-Dual [2]; [7],0.682
same,NF-kB SEAP reporter activity,RAW-Dual [2]; [8],0.624
CN1CCC(=C2c3ccccc3C=Cc3ccccc32)CC1,NF-kB SEAP reporter activity,RAW-Dual [1]; [5],1.12
CC(N)C1CCC(C(=O)Nc2ccncc2)CC1.Cl.Cl (centres undefined) (library stock concentration (final ~1000-fold dilution): 10 mM),NF-kB SEAP reporter activity,RAW-Dual [2]; agonist: LPS (TLR4) 0.1 ug/mL,1.15
same,NF-kB SEAP reporter activity,RAW-Dual [2]; [6],1.07
same,NF-kB SEAP reporter activity,RAW-Dual [2]; [7],1.15
same,NF-kB SEAP reporter activity,RAW-Dual [2]; [8],1.33
CC(N)C1CCC(C(=O)Nc2ccncc2)CC1.Cl.Cl (centres undefined),NF-kB SEAP reporter activity,RAW-Dual [1]; [4],0.965
same,NF-kB SEAP reporter activity,RAW-Dual [1]; [5],1.1
CN1CCN(CC/C=C2/c3ccccc3Sc3ccc(S(=O)(=O)N(C)C)cc32)CC1,NF-kB SEAP reporter activity,RAW-Dual [1]; [9],1.16
same,NF-kB SEAP reporter activity,RAW-Dual [1]; [10],1.42
CN1CCN(CC/C=C2/c3ccccc3Sc3ccc(S(=O)(=O)N(C)C)cc32)CC1 (library stock concentration (final ~1000-fold dilution): 10 mM),NF-kB SEAP reporter activity,RAW-Dual [3]; agonist: LPS (TLR4) 0.1 ug/mL,0.836
same,NF-kB SEAP reporter activity,RAW-Dual [3]; [6],0.865
same,NF-kB SEAP reporter activity,RAW-Dual [3]; [7],0.78
same,NF-kB SEAP reporter activity,RAW-Dual [3]; [8],1.17
CC1OC(OC2C(CO)OC(OC3C(CO)OC(O)C(O)C3O)C(O)C2O)C(O)C(O)C1NC1C=C(CO)C(O)C(O)C1O (centres undefined),NF-kB SEAP reporter activity,RAW-Dual [1]; [4],0.983
same,NF-kB SEAP reporter activity,RAW-Dual [1]; [5],0.951
CC1OC(OC2C(CO)OC(OC3C(CO)OC(O)C(O)C3O)C(O)C2O)C(O)C(O)C1NC1C=C(CO)C(O)C(O)C1O (centres undefined) (library stock concentration (final ~1000-fold dilution): 10 mM),NF-kB SEAP reporter activity,RAW-Dual [2]; agonist: LPS (TLR4) 0.1 ug/mL,1.19
same,NF-kB SEAP reporter activity,RAW-Dual [2]; [6],1.03
same,NF-kB SEAP reporter activity,RAW-Dual [2]; [7],1.02
same,NF-kB SEAP reporter activity,RAW-Dual [2]; [8],1.06
COc1ccc(-c2ccc3c(N4CCOCC4)nc(N4CC(C)OC(C)C4)nc3n2)cc1CO (centres undefined),NF-kB SEAP reporter activity,RAW-Dual [1]; [4],0.91
same,NF-kB SEAP reporter activity,RAW-Dual [1]; [5],0.935
COc1ccc(-c2ccc3c(N4CCOCC4)nc(N4CC(C)OC(C)C4)nc3n2)cc1CO (centres undefined) (library stock concentration (final ~1000-fold dilution): 10 mM),NF-kB SEAP reporter activity,RAW-Dual [2]; agonist: LPS (TLR4) 0.1 ug/mL,0.793
same,NF-kB SEAP reporter activity,RAW-Dual [2]; [6],0.836
same,NF-kB SEAP reporter activity,RAW-Dual [2]; [7],0.365
same,NF-kB SEAP reporter activity,RAW-Dual [2]; [8],0.707
CNC1CCCN(c2c(F)cc3c(=O)c(C(=O)O)cn(C4CC4)c3c2OC)C1 (centres undefined) (library stock concentration (final ~1000-fold dilution): 10 mM),NF-kB SEAP reporter activity,RAW-Dual [2]; agonist: LPS (TLR4) 0.1 ug/mL,0.905
same,NF-kB SEAP reporter activity,RAW-Dual [2]; [6],0.937
same,NF-kB SEAP reporter activity,RAW-Dual [2]; [7],1.01
same,NF-kB SEAP reporter activity,RAW-Dual [2]; [8],1.06
CNC1CCCN(c2c(F)cc3c(=O)c(C(=O)O)cn(C4CC4)c3c2OC)C1 (centres undefined),NF-kB SEAP reporter activity,RAW-Dual [1]; [4],0.968
same,NF-kB SEAP reporter activity,RAW-Dual [1]; [5],0.927
CC1CCC2C(C)C(OC(=O)CCC(=O)O)OC3OC4(C)CCC1C32OO4 (centres undefined) (library stock concentration (final ~1000-fold dilution): 10 mM),NF-kB SEAP reporter activity,RAW-Dual [2]; agonist: LPS (TLR4) 0.1 ug/mL,5.12
same,NF-kB SEAP reporter activity,RAW-Dual [2]; [6],1.67
same,NF-kB SEAP reporter activity,RAW-Dual [2]; [7],1.02
same,NF-kB SEAP reporter activity,RAW-Dual [2]; [8],1.44
CC1CCC2C(C)C(OC(=O)CCC(=O)O)OC3OC4(C)CCC1C32OO4 (centres undefined),NF-kB SEAP reporter activity,RAW-Dual [1]; [4],1.84
same,NF-kB SEAP reporter activity,RAW-Dual [1]; [5],2.5
O=C1NC(=O)C(c2cnc3ccccn23)=C1c1cn2c3c(cc(F)cc13)CN(C(=O)N1CCCCC1)CC2 (library stock concentration (final ~1000-fold dilution): 10 mM),NF-kB SEAP reporter activity,RAW-Dual [2]; agonist: LPS (TLR4) 0.1 ug/mL,3.19
same,NF-kB SEAP reporter activity,RAW-Dual [2]; [6],2.72
O=C1NC(=O)C(c2cnc3ccccn23)=C1c1cn2c3c(cc(F)cc13)CN(C(=O)N1CCCCC1)CC2,NF-kB SEAP reporter activity,RAW-Dual [1]; [4],2.62
Cc1ccc(S(=O)(=O)c2ccc([N+](=O)[O-])o2)cc1,NF-kB SEAP reporter activity,RAW-Dual [1]; [9],0.219
same,NF-kB SEAP reporter activity,RAW-Dual [1]; [10],0.225
Cc1ccc(S(=O)(=O)c2ccc([N+](=O)[O-])o2)cc1 (library stock concentration (final ~1000-fold dilution): 10 mM),NF-kB SEAP reporter activity,RAW-Dual [3]; agonist: LPS (TLR4) 0.1 ug/mL,0.387
same,NF-kB SEAP reporter activity,RAW-Dual [3]; [6],0.184
same,NF-kB SEAP reporter activity,RAW-Dual [3]; [7],0.0691
same,NF-kB SEAP reporter activity,RAW-Dual [3]; [8],0.14
Cc1cn[nH]c1,NF-kB SEAP reporter activity,RAW-Dual [1]; [4],0.918
same,NF-kB SEAP reporter activity,RAW-Dual [1]; [5],1.03
Cc1cn[nH]c1 (library stock concentration (final ~1000-fold dilution): 10 mM),NF-kB SEAP reporter activity,RAW-Dual [2]; agonist: LPS (TLR4) 0.1 ug/mL,0.88
same,NF-kB SEAP reporter activity,RAW-Dual [2]; [6],1
same,NF-kB SEAP reporter activity,RAW-Dual [2]; [7],1.04
same,NF-kB SEAP reporter activity,RAW-Dual [2]; [8],1.01
